Data on two molecules can be found in patent publication US20230122503A1, “ANTI-PSMA RADIOCONJUGATES AND USES THEREOF” (Janssen Biotech, Inc., priority 2021, published 2023).

Data set [1] is described as follows: SE HPLC of purified antibodies (% monomer post protein A). The following applies: post protein A purification. Type of data set: physicochemical. How it is done:
SE HPLC of the purified antibodies was performed by running samples on a TOSOH TSKgel BioAssist G3SWxl column, in 0.2 M Na Phosphate pH 6.8 at 1 mL/min on a Waters Alliance HPLC for 20 min. The column effluent was monitored by absorbance at 280 nm. For a molecule to be considered a therapeutic lead, it is critical that it can be produced in substantial amounts with high purity and high yield. Typically, purification losses are higher, and yields are lower with aggregation-prone proteins. The initial monomer percentage is generally considered a good surrogate indicator of the manufacturability of a protein.

Data set [2] is described as follows: Thermal stability by nanoDSF (Tm, Tagg). It counts as physicochemical. The following applies: 20° C. to 95° C. at 1.0° C./minute. The protocol: The thermal stability (conformational stability) of the anti-PSMA antibodies was determined by nanoDSF method using a Prometheus instrument. Measurements were made by loading sample into 24 well capillary from a 384 well sample plate. Duplicate runs were performed. The thermal scans span from 20° C. to 95° C. at a rate of 1.0° C./minute. The data was processed to obtain integrated data and first derivation analysis for 330 nm, 350 nm, Ratio 330/350, and scatter data from which thermal transitions, onset of unfolding, Tm and Tagg were obtained.
“Tm” or “mid-point temperature” is the temperature midpoint of a thermal unfolding curve. It refers to the temperature where 50% of the amino acid sequence is in its native conformation and the other 50% is denatured. A thermal unfolding curve is typically plotted as a function of temperature. Tm is used to measure protein stability. […] The Tm can be readily determined using methods well known to those skilled in the art such as Circular Dichroism Spectroscopy, Differential Scanning Calorimetry, Differential Scanning Fluorimetry (both intrinsic and extrinsic dye based), UV spectroscopy, FT-IR and Isothermal Calorimetry (ITC).
“Tagg” refers to the temperature at which the protein starts to aggregate either through dimerization or oligomerization. The aggregation temperature detects the onset of aggregation, the temperature at which a protein will show a tendency to aggregate. Tagg can be determined by differential scanning calorimetry (DSC), Differential Scanning Fluorimetry (DSF) or by circular dichroism (CD). These techniques can detect small changes in the conformation of the protein and therefore detect the starting point of aggregation. Tagg values can be lower or higher than Tm. In cases where Tagg is lower than Tm, the protein either dimerizes and/or oligomerizes first and then starts unfolding later at higher temperatures than the Tagg. In cases where Tagg is higher than Tm, the protein starts to unfold first and then aggregates at a higher temperature than the Tm. Both events are commonly observed and depend on amino acid composition and protein conformation.
Thermal unfolding parameters, Tm or midpoint temperature of thermal unfolding and Tagg or aggregation temperature of selected anti-PSMA antibodies are shown in Table 23.
On the technique in general: In DSF a fluorescence change marks the thermal transition of the protein.

Data set [3] concerns 22RV1 cells, expressing low levels of PSMA. Kind of data set: Cytotoxicity of PSMA ADCs (MMAF or DX8951) on 22RV1 cells. It counts as cell-based. The conditions noted are these: MMAF conjugate, 6d. How it is done: Selected mAbs were conjugated to a monomethyl auristatin F (MMAF) payload to confirm results from initial screening. Briefly, 600 ug of each mAb (1.2 mg/mL in 1×dPBS) was adjusted to pH 7.5 by addition of 1M potassium phosphate containing 50 mM EDTA (1:10 volumes). pH adjusted mAb was mixed with TCEP to a final concentration of 0.6 mM and incubated at 37° C. for 1 hr. To quench the TCEP (Gololobov and Kasukhin (1991) Tetrahedron 48, 1353-1406; Kantner, et. al. (2017) ACS Omega 2, 5785-57) 5 mM 3-amino-propyl-azide was added to the reaction and incubated for 30 min at 37° C. […] ADCs were separated from reaction components and buffer exchanged into dPBS by diafiltration. […] DAR was also calculated by liquid chromatography/mass spectroscopy. […] Total DAR (panel average of 3.4±0.5) for the ADC was calculated from the sum of light chain and heavy chain labeled only with maleimide-PEG4-vcPAB-MMAF. […]
Selected mAbs were also conjugated via maleimide/thiol chemistry to an exatecan methansulfonate derived camptothecinoid DX8951, containing a Gly-Gly-Phe-Gly linker (SEQ ID NO: 340) to facilitate cleavage and release of the payload. […] Final molar concentration of ADC was determined by bicinchoninic acid assay, using unconjugated mAb as a standard. DAR was determined to be 8.0 for all ADCs by Liquid chromatography/mass spectroscopy as described in section 4.6. […]

B1: PSMB1157 (antibody)
heavy: EVQLVESGGGVVQPGRSLRLSCAASVRTFSGYGMHWVRQVPGKGLEWVAVISYDGSNRYYADSVKGRFTISRDNSKNTLYLQMNSLRTEDTAVYYCARDGNWGSLDLYFDLWGRGTLVTVSS[human IgG1 constant region not given here]
light: QSVLTQPPSVSGAPGQRVTISCTGSSSNIGADYDVHWYQQLPGTAPKLLIYVNNNRPSGVPDRFSGSRSGTSASLAITGLQADDEADYYCQSYDNTLSGVVFGGGTKLTVLGQPKAAPSVTLFPPSSEELQANKATLVCLISDFYPGAVTVAWKADSSPVKAGVETTTPSKQSNNKYAASSYLSLTPEQWKSHRSYSCQVTHEGSTVEKTVAPTECS
B1: the “SEC (% monomer post protein A)” value in data set [1] is given as 90.0%. In data set [2], the “Fab Tm” value was 77.5 °C and the Tagg came out at 76.4 °C. Besides, the IC25 (commonly the point of the concentration-response curve where the effect stands at 25%) in data set [3] amounted to 400 pM.

B2: PSMB1154 (antibody)
heavy: EVQLVESGGGEVQPGRSLRLTCAVSGFTLSRYGMHWVRQAPGKGLEWAALISYDGSNRYYADSVKGRFTISRDNSKNTVFLQMNSLRAEDTAVYYCARERESSGWFEGYFDYWGQGTTVTVSS[human IgG1 constant region not given here]
light: QLVLTQPPSVSVAPGQTARITCGGNNIGSKSVHWYQQKPGQAPVLVVYDNSDRPSGIPERFSGSNSGNTATLTISRVEVGDEADYYCQVWDSSSDHVVFGGGTKLTVLGQPKAAPSVTLFPPSSEELQANKATLVCLISDFYPGAVTVAWKADSSPVKAGVETTTPSKQSNNKYAASSYLSLTPEQWKSHRSYSCQVTHEGSTVEKTVAPTECS
In the case of B2, in data set [1], the “SEC (% monomer post protein A)” value was 98.1%. For the same molecule, in data set [2], the “Fab Tm” value is 72.8 °C and the Tagg turned out to be 72.8 °C. The 25% effect concentration (IC25) in data set [3] was found to be 100 pM.
